The whole screen tested about 310,000 compounds, of which about 2,200 (0.71%) showed an effect of 50% or more. Effects have a minus sign here. Some of the results follow.

Sequence of human ether-à-go-go-related gene (hERG) potassium channel (Q12809 whole entry, looked up): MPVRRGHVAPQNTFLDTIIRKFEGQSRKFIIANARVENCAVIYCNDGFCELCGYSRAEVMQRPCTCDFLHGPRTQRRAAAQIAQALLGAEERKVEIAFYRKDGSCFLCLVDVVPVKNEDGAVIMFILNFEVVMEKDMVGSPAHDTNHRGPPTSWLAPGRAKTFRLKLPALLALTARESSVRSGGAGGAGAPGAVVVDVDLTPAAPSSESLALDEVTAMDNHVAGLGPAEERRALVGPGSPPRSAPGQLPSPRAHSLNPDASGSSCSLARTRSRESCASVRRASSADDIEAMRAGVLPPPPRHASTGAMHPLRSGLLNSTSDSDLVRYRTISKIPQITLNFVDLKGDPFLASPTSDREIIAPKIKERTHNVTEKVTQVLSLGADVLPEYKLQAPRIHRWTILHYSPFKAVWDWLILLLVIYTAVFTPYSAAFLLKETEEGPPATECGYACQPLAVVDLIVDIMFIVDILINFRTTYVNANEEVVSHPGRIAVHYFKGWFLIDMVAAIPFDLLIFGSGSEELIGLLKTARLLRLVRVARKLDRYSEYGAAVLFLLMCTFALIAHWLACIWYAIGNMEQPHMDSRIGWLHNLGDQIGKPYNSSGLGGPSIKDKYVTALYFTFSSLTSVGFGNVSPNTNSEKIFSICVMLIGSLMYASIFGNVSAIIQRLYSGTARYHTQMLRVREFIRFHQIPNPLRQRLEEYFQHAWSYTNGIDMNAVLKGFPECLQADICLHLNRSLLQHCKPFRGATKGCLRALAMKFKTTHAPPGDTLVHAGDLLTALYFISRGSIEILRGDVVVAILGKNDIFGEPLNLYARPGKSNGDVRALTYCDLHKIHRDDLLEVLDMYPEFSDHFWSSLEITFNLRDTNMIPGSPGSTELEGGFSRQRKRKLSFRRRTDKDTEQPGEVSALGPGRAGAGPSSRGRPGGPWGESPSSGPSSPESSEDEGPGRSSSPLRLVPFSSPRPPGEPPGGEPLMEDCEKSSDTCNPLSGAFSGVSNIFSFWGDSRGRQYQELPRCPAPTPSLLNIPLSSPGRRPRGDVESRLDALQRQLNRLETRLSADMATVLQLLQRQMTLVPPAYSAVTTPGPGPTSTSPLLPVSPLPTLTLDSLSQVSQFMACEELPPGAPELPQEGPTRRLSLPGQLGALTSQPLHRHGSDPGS

The assay has as its target human ether-à-go-go-related gene (hERG) potassium channel (human, UniProt Q12809). Briefly: primary screen, population patch clamp on CHO cells stably expressing hERG.
Regarding `CCC(CCC(=O)Nc1ccn(-c2ccccc2)n1)C(=O)O` (stereo not shown), the “hERG current change (%, negative = inhibition) at 1uM” value was found to be 7.09%.
Then `Cc1cccc(NC(=O)c2ccoc2C)n1`, with 17%; and `O=C(Cn1nc(-c2ccccc2)c2ccccc2c1=O)Nc1cccnc1`, with 7.68%.
Then `CCc1ccc(N2CC(C(=O)OCC(=O)NNC(=O)c3ccccc3)CC2=O)cc1` (stereo not shown), with 10.4%; and `O=C(CCn1c(=O)oc2cc(Cl)ccc21)Nc1ccc(O)cc1`, with 6.07%.
To `O=C(CNC(=O)c1ccccc1F)NCCc1ccccc1F` belongs 10.8%.
`CC(C)C(C)(C#N)NC(=O)CSc1nc2scc(-c3ccc(F)cc3)c2c(=O)n1Cc1ccccc1` (stereo not shown): the “hERG current change (%, negative = inhibition) at 1uM” value was determined as 19.2%.
Then `CCCCC(=O)NC(=O)NC(c1ccccc1)c1ccccc1`, with 6.43%; and `O=C(CN1C(=O)NC2(CCCCCCC2)C1=O)Nc1ccc(Br)cc1`, with 7.76%.
To `COc1ccc(CCNC(=O)C2CCC(=O)N2CCc2ccccc2)cc1OC` (stereo not shown) belongs 13.9%.
Then `COc1ccc(C)cc1S(=O)(=O)N(CC(=O)N1CCCC1)c1ccc(C)cc1`, with -25.1%; and `Cc1nc2cc(N)ccc2n1-c1ccccc1`, with 10.7%; and `COCCNC(=S)NNC(=O)CSCc1ccc(Cl)cc1Cl`, with 12.5%.
`COc1ccc(CN2C(=NC(=O)CCC3CCCC3)SC3CS(=O)(=O)CC32)cc1` (stereo not shown): the “hERG current change (%, negative = inhibition) at 1uM” value turned out to be 15%.
In the case of `Cc1ccc(Cn2nnc3c(=O)n(CC(=O)NCC4CCCO4)cnc32)cc1` (stereo not shown), the “hERG current change (%, negative = inhibition) at 1uM” value is reported as 1.92%.
As to `CCOC(=O)c1oc2cc(OCC(N)=O)ccc2c(=O)c1-c1ccc(OC)c(OC)c1`, the “hERG current change (%, negative = inhibition) at 1uM” value is given as 15.2%.
Consider `COCCNC(=O)CN1CCN(C(c2ccccc2)c2ccccc2)CC1.O=C(O)C(=O)O`, for which the “hERG current change (%, negative = inhibition) at 1uM” value stood at 1.83%.
To `CCOC(=O)N1CCN(C(=O)C2CCC(CNS(=O)(=O)c3ccccc3)CC2)CC1` (stereo not shown) belongs -0.59%.
Take `CCC(CC)c1nnc(NC(=O)Cc2ccccc2[N+](=O)[O-])s1`: the “hERG current change (%, negative = inhibition) at 1uM” value came out at 11.8%.
Consider `CCCCN(C)CCN1C(=O)C2C(C(=O)Nc3ccc(OC)cc3)C3C=CC2(O3)C1C(=O)NC1CCCCC1` (stereo not shown), for which the “hERG current change (%, negative = inhibition) at 1uM” value is on record as 3.44%.
Then `COc1ccccc1CCc1nnc(CCC(=O)NCC(C)Oc2cccnc2)o1` (stereo not shown), with 3.33%; and `O=C(O)c1cc(NC(=O)c2ccc(Br)cc2)cc(NC(=O)c2ccc(Br)cc2)c1`, with 17.3%.
For the molecule `O=C(COc1ccc2ccccc2c1)Nc1cccc2cccnc12`, the “hERG current change (%, negative = inhibition) at 1uM” value is listed as 7.64%.
Then `COc1ccc2c(CC(=O)OCC(=O)NC(N)=O)coc2c1`, with 6.38%; and `CCNS(=O)(=O)c1ccc(NC(=O)Cc2ccc(F)cc2)cc1`, with 7.95%.
To `O=C(COc1ccccc1Cl)NC(=O)NC1CCCC1` belongs 9.64%.
Then `COc1cc(OC)cc(N(C(=O)C2COc3ccccc3O2)C(C(=O)NC2CCCCC2)c2ccc(O)cc2)c1` (stereo not shown), with 10.1%.
With `O=C(NCc1cccc(CNC(=O)C(=O)NCC2CCCO2)c1)C(=O)NCC1CCCO1` (stereo not shown), the “hERG current change (%, negative = inhibition) at 1uM” value was 7.96%.
To `COc1ccc(C2C(C(=O)NCc3ccccn3)c3cc(OC)c(OC)cc3C(=O)N2C)cc1` (stereo not shown) belongs 0.802%; to `O=C(CCn1c(=S)[nH]c2ccccc2c1=O)Nc1cccc(Cl)c1`, 7.43%; to `Cn1c(=O)c2nnn(/N=C(\c3ccccc3)C3CC3)c2n(C)c1=O`, -1.59%.
In the case of `CC(=O)Nc1ccc(SC(C)C(=O)NC(N)=O)cc1` (stereo not shown), the “hERG current change (%, negative = inhibition) at 1uM” value is 12%.
Then `O=C(CSc1nc(-c2ccc(F)cc2)cs1)NCCN1C(=O)CSC1=O`, with 2.97%; and `Cc1cc(C)n(-c2nc3ccccc3nc2N2CCC(C)CC2)n1`, with -9.63%; and `Cc1cc(C)n(-c2ccc(OCC(=O)O)nn2)n1`, with 4.94%.
Regarding `Cc1ccc(-c2ccc(/C=N/NC(=S)Nc3ccccc3)o2)cc1[N+](=O)[O-]`, the “hERG current change (%, negative = inhibition) at 1uM” value was 14.6%.
In the case of `O=C(NCCN1CCOCC1)c1cc(-c2ccc(F)cc2)on1`, the “hERG current change (%, negative = inhibition) at 1uM” value was -3.76%.
Then `COc1ccc(/C=C2/NC(=O)N(Cc3ccccc3F)C2=O)cc1OC`, with 2.5%.
To `CC(C)Oc1cccc(C(=O)Nc2ccc(N3CCN(S(C)(=O)=O)CC3)cc2)c1` belongs 5.08%.
To `CCOC(=O)c1c(/N=C/N(C)C)sc(/C=N/Nc2ccccc2)c1-c1ccc(Cl)cc1` belongs 15.9%; to `CC(=O)Nc1ccc(Nc2cc(C)nc(Nc3ccc(NC(C)=O)cc3)n2)cc1`, 6.4%; to `C#CCNC(=O)C1=C[C@H](c2ccc(Br)cc2)C[C@H](OCc2ccc(CO)cc2)O1`, 11%.
Regarding `COC(=O)c1ccccc1NC(=O)CN1CCC(C)CC1`, the “hERG current change (%, negative = inhibition) at 1uM” value is -0.0967%.
Turning to `O=C1NC(=O)N(CCc2ccc(F)cc2)C(=O)/C1=C/c1cccs1`, the “hERG current change (%, negative = inhibition) at 1uM” value was determined as 11.6%.
To `CCOC(=O)Cc1csc(NC(=O)C(C)c2ccc([N+](=O)[O-])cc2)n1` (stereo not shown) belongs -7.17%.
Then `COc1ccccc1OC(=O)c1ccc2nsnc2c1`, with 2.75%; and `Cc1ccc(S(=O)(=O)N2CCOCC2)cc1NC(=O)CNC1CCCC1.O=C(O)C(=O)O`, with 12.6%.
To `Cc1ccc(S(=O)(=O)N2CCN(C(=O)c3cc(C4CC4)nc4c3cnn4C(C)C)CC2)cc1` belongs 6.5%; to `CCn1c(=O)c2c(nc3n2CCCN3CCc2ccc(OC)c(OC)c2)n(C)c1=O`, 4.99%; to `CCC(=O)Nc1cccc(-n2nnnc2SCC(=O)NCc2ccco2)c1`, 6.16%.
As for `CCCCSc1nc2sc3c(c2c(=O)n1-c1ccc(C)cc1)CCN(C)C3`, the “hERG current change (%, negative = inhibition) at 1uM” value was determined as 12.1%.
Then `COCCn1nnnc1C(c1ccc(OC)cc1)N1CCN(C(=O)c2ccco2)CC1.Cl` (stereo not shown), with 9.88%.
In the case of `CCOC(=O)c1cnc2ccc(C(=O)OC)cc2c1Nc1ccc(C(=O)O)cc1.Cl`, the “hERG current change (%, negative = inhibition) at 1uM” value was determined as 6.81%.
Then `O=C(O)c1nnn(-c2ccc([N+](=O)[O-])cc2)c1-c1ccccc1`, with 9.65%; and `Cc1cc(=O)oc2c3c(cc(OCC(=O)Nc4ccc(CCO)cc4)c12)OC(C)(C)CC3`, with 18.5%; and `O=C(CSc1nnnn1C1CCCC1)NCc1cccs1`, with -6.69%.
Then `C=CCNC(=O)c1ccccc1NC(=O)C1COc2ccccc2O1` (stereo not shown), with 12.2%.
`O=C(Nc1ccccc1)C1CCCCC1`: the “hERG current change (%, negative = inhibition) at 1uM” value came out at 5.32%.
With `Cc1ccc(CNCC2CCCO2)o1` (stereo not shown), the “hERG current change (%, negative = inhibition) at 1uM” value is 4.27%.
For `CCOC(=O)c1ccc(COC(=O)CCc2nc3ccccc3[nH]c2=O)o1`, the “hERG current change (%, negative = inhibition) at 1uM” value came to 10.6%.
In the case of `O=C(O)CN1C(=O)S/C(=C\c2ccc3c(c2)OCO3)C1=O`, the “hERG current change (%, negative = inhibition) at 1uM” value worked out at 3.59%.
To `CCC(=O)c1ccc(OCC(=O)Nc2ccc(N3CCOCC3)cc2N2CCOCC2)cc1` belongs 12.3%.
Consider `O=C(Cc1ccc(F)cc1)Nc1ccc(Cl)cn1`, for which the “hERG current change (%, negative = inhibition) at 1uM” value was 14.8%.
To `O=C(N/N=C/c1ccccc1)c1ccc(N2CCCC2=O)cc1` belongs 11.9%.
Then `CC(C)c1ccc(OCC(O)CN2CCN(c3ccccn3)CC2)cc1.Cl` (stereo not shown), with -27.7%; and `CN1CCN(C(=O)C2(NC(=O)Nc3ccccc3Cl)CCCCC2)CC1`, with 16.2%.
Regarding `CC(Oc1cc2oc(=O)c3c(c2cc1Cl)CCC3)C(=O)NCCCN1CCCC1=O` (stereo not shown), the “hERG current change (%, negative = inhibition) at 1uM” value is on record as 14%.
Take `CC(=O)N1c2ccc(S(=O)(=O)N3CCC(C(=O)N4CCN(c5cc(Cl)ccc5C)CC4)CC3)cc2CC1C` (stereo not shown): the “hERG current change (%, negative = inhibition) at 1uM” value is -0.163%.
To `COc1ccc(-c2cc(C)no2)cc1S(=O)(=O)NCc1cccc(C)c1` belongs -1.81%.
Then `COCCc1ccc(OCC(O)CNC(C)C)cc1.O=C(O)[C@H](O)[C@@H](O)C(=O)O` (stereo not shown), with 4.84%; and `Cc1cc(N2C(=O)C3C4CC(C(Br)C4Br)C3C2=O)no1` (stereo not shown), with 30%; and `O=C(Nc1ccc2c(c1)OCO2)c1c(F)c(F)c(F)c(F)c1F`, with 1.53%.
`Cc1cc(C)cc(CSc2nnc(C)c(=O)[nH]2)c1`: the “hERG current change (%, negative = inhibition) at 1uM” value is listed as -4.44%.
For `O=C(NCCN1CCN(C(=O)Nc2ccccc2)CC1)Nc1ccccc1`, the “hERG current change (%, negative = inhibition) at 1uM” value is on record as 8.07%.
As for `CC12CCC(CC1=O)C2(C)C` (stereo not shown), the “hERG current change (%, negative = inhibition) at 1uM” value was 17.3%.
`Cc1ccccc1NC(=O)COc1ccc(Br)cc1C`: the “hERG current change (%, negative = inhibition) at 1uM” value is on record as 18.6%.
To `COC1(c2ccccc2)NC(=S)NN=C1c1ccccc1` (stereo not shown) belongs 8.24%.
As for `Cc1ccc2cc(CCNC(=O)C3CCCC3)c(=O)[nH]c2c1`, the “hERG current change (%, negative = inhibition) at 1uM” value is 11.2%.
To `CC(O)CCC(=O)NNC1=CC(=O)CC(C)(C)C1` (stereo not shown) belongs 1.27%; to `COc1cc(C(O)c2nc3ccccc3s2)cc(OC)c1OC` (stereo not shown), 13%.
To `CCCNC(=O)c1cc(Cl)c(NC(=O)C2=C(C)OCCS2)cc1OC` belongs -13.4%; to `O=C(CS(=O)(=O)c1ccc(F)cc1)Nc1nccs1`, 12.7%.
To `O=C(CSc1n[nH]c(=O)[nH]c1=O)NC1CC1` belongs 11.3%.
On to `COc1ccc(C2/C(=C(/O)c3ccc(S(=O)(=O)N4CCOCC4)cc3)C(=O)C(=O)N2CCN2CCOCC2)cc1` (stereo not shown), for which the “hERG current change (%, negative = inhibition) at 1uM” value amounted to 10%.
To `COCCCNC(=S)N1CCN(c2nc(C)nc3sc4c(c23)CCCC4)CC1` belongs 17.4%; to `O=C(CSc1nnc(-c2ccco2)o1)NC(=O)Cc1ccccc1`, 8.2%.
To `Cc1ccc(CSc2nc3c(cc2C#N)CCC3)cc1` belongs 8.07%; to `COc1ccc(N2CCN(Cc3nc(-c4ccc(Cl)cc4Cl)no3)CC2)cc1`, 6.92%.

(Values after paper PMC4336329 (PLoS ONE, 2015).)
